Assay results taken from PubChem BioAssay AID686971 (National Center for Advancing Translational Sciences (NCATS), 2013).
About 7,500 (2.1%) of roughly 360,000 compounds were called active. This list was built around the results that the source calls inconclusive (neither active nor inactive); the mix of calls is not that of the screen. Calls follow the shape of the dose curve; as a rule, active = well fitted cell-killing curve with a large enough effect; inconclusive = small, poorly fitted or top-dose-only effect, or effect the other way, or another doubt; inactive = no such curve, though single readings can be large or run the other way. No potency is given beside an inconclusive call; the fits are too rough.
Potency is read from the fitted curve at half-maximal effect; tags tell the direction and shape of the fitted curve.

Test: qHTS for induction of synthetic lethality in tumor cells producing 2HG: qHTS for the HT-1080-IDH1KD cell line;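 as to activity, negative = toxicity: 0% = DMSO wells and -100% = cell-free medium wells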
Settings: HT-1080 IDH1 knockdown viability, ATP luminescence, 48 h; activity, negative = toxicity: at 46.1 µM (top of the series) unless noted
Method in brief: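 In this qHTS, HT-1080 cells depleted of IDH1 are exposed for 48 h at 37 °C to compound titrations. Toxicity is scored from CellTiter-Glo luminescence, with DMSO as full viability and medium alone as none.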
In the case of `Cn1cc(CN2CCN(c3ccccc3)CC2)c2ccccc21`, the Potency is reported as inconclusive [cytotoxic, single point].
For `COc1ccc(/C=C/c2nc3cc(-c4ccccc4)ccc3o2)cc1O`, the Potency was inconclusive [cytotoxic, single point].
In the case of `CSc1ccc(S(=O)(=O)Nc2ccc3c4c(cccc24)CC3)cc1`, the Potency is reported as inconclusive [cytotoxic, single point].
In the case of `c1ccc(OCCNc2nc(NCC3CC3)nc3ccsc23)cc1`, the Potency is reported as inconclusive [cytotoxic, single point].
In the case of `Cc1ccc2nc(/C(C#N)=C\c3ccc(Oc4ccc(C(F)(F)F)cc4[N+](=O)[O-])cc3)[nH]c2c1`, the Potency is reported as inconclusive [cytotoxic, single point].
For `COc1ccc(-c2csc(N(CCCN(C)C)C(=O)c3cccs3)n2)cc1`, the Potency was active: 11.2 µM.
With `CCCc1cc(=O)[nH]c(SCC(=O)c2c(N)n(C3CC3)c(=O)[nH]c2=O)n1` the Potency was inconclusive [cytotoxic, single point].
In the case of `Cc1[nH]n(-c2ccccc2)c(=O)c1C(C[N+](=O)[O-])c1ccccc1Cl` (stereo not given), the “activity, negative = toxicity” value is reported as inactive: -6.43%.
With `OC(Cc1ccccc1)c1ncc(-c2ccc3ccccc3c2)[nH]1` (stereo not given) the Potency was active: 18.4 µM.
In the case of `COc1cccc(-c2ncc3ccccc3c2COC(=O)c2ccc(C(C)(C)C)cc2)c1`, the Potency is reported as inconclusive [cytotoxic, partial curve, poor fit].
With `CN1CCN(S(=O)(=O)c2cnccc2N2CCN(c3cccc(Cl)c3)CC2)CC1` the Potency was inconclusive [cytotoxic, partial curve].
With `Cc1ccc(-c2ccc(CCC(=O)O)n2CC(=O)O)cc1` the Potency was inconclusive [rising, single point].
In the case of `COc1ccc(C2C3=C(N=C4SCC(=O)N42)c2ccccc2CC3)cc1OC` (stereo not given), the “activity, negative = toxicity” value is reported as inactive: -25.7%.
In the case of `COc1ccc(-c2csc(N(CC3CCCO3)C(=O)c3ccc(C)cc3)n2)cc1` (stereo not given), the Potency is reported as inconclusive [cytotoxic, partial curve].
With `Nc1ccc(C2(c3ccc(N)cc3)C(=O)Nc3ccccc32)cc1` the Potency was inconclusive [cytotoxic, single point].
For `O=C(NCC1CCCN1S(=O)(=O)c1cccs1)c1c(F)cccc1F` (stereo not given), the “activity, negative = toxicity” value was inactive: 4.83%.
In the case of `CC(C)N(C)CCOC(=O)/C=C/c1ccccc1`, the “activity, negative = toxicity” value is reported as inactive: 0.28%.
For `O=C(NN=Cc1ccc2c(c1)CCC2)c1cccc([N+](=O)[O-])c1`, the “activity, negative = toxicity” value was inactive: -8.09%.
With `Cc1ccc(Nc2nc(-c3ccc(S(=O)(=O)N4CCOCC4)cc3)cs2)cc1` the Potency was inconclusive [cytotoxic, single point].
In the case of `CCS(=O)(=O)N1CCC(C(=O)Oc2ccccc2)CC1`, the activity, negative = toxicity is reported as inconclusive: 34.7%.
In the case of `COc1cc(OC)c2c(-c3cccc(-c4ccc(F)c(Cl)c4)c3)cc(=O)oc2c1`, the Potency is reported as active: 16.4 µM.
In the case of `CSc1ccc(CCNC(=O)C2CCCN(S(=O)(=O)N3CCOCC3)C2)cc1` (stereo not given), the “activity, negative = toxicity” value is reported as inactive: 4.03%.
For `CC1(C(=O)NS(=O)(=O)c2ccc(Cl)cc2)CCN1C(=O)c1ccccc1` (stereo not given), the “activity, negative = toxicity” value was inactive: 7.14%.
In the case of `CC(C)(C)c1nnc(NC(=O)COc2ccc3c(c2)OCO3)s1`, the Potency is reported as inconclusive [cytotoxic, partial curve].
With `CN(Cc1cnn(Cc2ccccc2)c1)C(=O)c1cccc(S(=O)(=O)N2CCOCC2)c1` the Potency was inconclusive [cytotoxic, single point].
In the case of `Clc1ccc(-c2csc(Nc3ccccc3)[n+]2Cc2ccco2)c(Cl)c1`, the Potency is reported as inconclusive [cytotoxic, single point].
For `NC(=S)NNc1cccc2cccnc12`, the Potency was inconclusive [cytotoxic, partial curve].
In the case of `Cc1ccc(Nc2nc(NCCO)c3ccccc3n2)cc1C`, the Potency is reported as active: 23.1 µM.
In the case of `CC(=O)Nc1ccc(-c2csc(-c3cccnc3)n2)cc1`, the “activity, negative = toxicity” value is reported as inactive: -26.9%.
With `Cc1ccc(-c2nc(NCc3ccc(F)cc3)n(S(C)(=O)=O)n2)cc1` the Potency was inconclusive [cytotoxic, single point].
For `CC(=O)c1c(C)[nH]c(C(=O)CN2C(=O)NC(C)(CCC(C)C)C2=O)c1C` (stereo not given), the “activity, negative = toxicity” value was inactive: 2.7%.
For `COc1cc(C(=O)Nc2ccc3c(c2)ncn3C)cc(OC)c1OC`, the Potency was inconclusive [cytotoxic, full curve].
In the case of `Cn1cnc2c(N/N=C/c3cccs3)ncnc21`, the Potency is reported as inconclusive [cytotoxic, partial curve].
In the case of `CS(=O)(=O)N(Cc1ccc(Cl)cc1)c1ccc(C(=O)Nc2cccnc2)cc1`, the Potency is reported as inconclusive [cytotoxic, single point].
In the case of `COc1cc(F)ccc1-c1csc(C(C)(O)c2ccc(F)c(F)c2)n1` (stereo not given), the Potency is reported as inconclusive [cytotoxic, single point].
With `COCCCNC(=O)CCc1c(C)nc2c(c(C)nn2-c2ccccc2)c1C` the “activity, negative = toxicity” value was inactive: -1.22%.
With `O=S(=O)(c1cccc(F)c1)N1CCN(Cc2cc3c(cc2Br)OCCO3)CC1` the Potency was inconclusive [cytotoxic, single point].
For `CCOC(=O)C(NC(=O)c1ccccc1)=C(C)C`, the activity, negative = toxicity was inactive: -4.86% [at 9.24 µM].
In the case of `CCOc1cccc(C=Nc2cc(C)cc(C)c2O)c1O`, the “activity, negative = toxicity” value is reported as inactive: -3.77%.
In the case of `CCCOc1ccccc1NC(=O)/C=C/C(N)=O`, the Potency is reported as active: 10 µM.
For `CC1CCN(C(=O)c2ccc(S(=O)(=O)Cc3ccccc3F)c([N+](=O)[O-])c2)CC1`, the Potency was inconclusive [cytotoxic, partial curve].
In the case of `Cc1cc(C(C)(C)C)cc(C)c1Cn1c2[n+](c3ccc(C(F)(F)F)cc31)CCCCC2`, the Potency is reported as inconclusive [cytotoxic, single point].
For `C#CCNC(=O)C[C@@H]1C[C@@]2(C(=O)OCC)CCCC=C2N(CCCCCCCC)C1=O`, the Potency was inconclusive [cytotoxic, single point].
For `COc1ccc([C@H]2N[C@]3(CCCN(Cc4ccc(Br)cc4)C3=O)[C@H]3C(=O)N(Cc4ccccc4)C(=O)[C@@H]23)cc1`, the “activity, negative = toxicity” value was inactive: -22.4%.
With `CCCC(=O)OCCNc1cc(Sc2nc3ccccc3[nH]2)c2nonc2c1[N+](=O)[O-]` the Potency was inconclusive [cytotoxic, single point].
In the case of `COc1ccc(NC(=O)Cn2nnc(C(=O)NCc3cccs3)c2N)c(OC)c1`, the Potency is reported as inconclusive [cytotoxic, single point].
In the case of `CCOc1cc(N2CCOCC2)c(OCC)cc1NC(=O)COC(=O)C1CCCN1S(=O)(=O)c1ccccc1F` (stereo not given), the Potency is reported as inconclusive [cytotoxic, single point].
In the case of `CCSc1nnc2c(n1)OC(C)(C)Nc1ccccc1-2`, the activity, negative = toxicity is reported as inactive: 3.47% [at 9.24 µM].
For `Cc1ccc(-c2c[n+]3c(n2-c2ccccc2)SCC3)cc1`, the Potency was inconclusive [cytotoxic, single point].
In the case of `CCOc1cc(CNc2ccc(O)cc2)cc(Br)c1OCc1ccccc1F`, the Potency is reported as inconclusive [cytotoxic, single point].
For `CC1=CC(C)[C@H](/C=N/n2c(=O)[nH]c3c([nH]c4ccc(Br)cc43)c2=O)C(C)C1` (stereo not given in full), the Potency was inconclusive [cytotoxic, partial curve, poor fit].
In the case of `CCN1CCN(C(c2ccccc2)c2nnnn2Cc2ccc(OC)cc2)CC1` (stereo not given), the “activity, negative = toxicity” value is reported as inactive: -15.1%.
With `Cc1cccc(C(=O)Nc2nnc(SCC(=O)Nc3ccc4c(c3)oc3ccccc34)s2)c1` the Potency was inconclusive [cytotoxic, single point].
For `CCOc1ccc(S(=O)(=O)NCc2ccccn2)cc1NC(=O)c1ccccc1`, the Potency was active: 3.26 µM.
In the case of `Cc1ccc(-n2cc(CN3CCC(O)(c4ccccn4)CC3)c(-c3ccc(F)cc3)n2)cc1`, the Potency is reported as inconclusive [cytotoxic, single point].
In the case of `COc1ccc(OC)c(NC(=O)CCCNC(=O)Cn2cnc3sc(C)c(C)c3c2=O)c1`, the “activity, negative = toxicity” value is reported as inactive: 8.86%.
For `Cc1cccc(OCC(=O)Nc2nnc(-c3ccco3)s2)c1`, the Potency was inconclusive [rising, partial curve].
For `CN(C)c1ccnc(Oc2ccc(C(C)(C)C)cc2)c1C#N`, the Potency was inconclusive [cytotoxic, single point].
With `COc1cccc(-c2cc(C(F)(F)F)nc(-n3cccn3)n2)c1` the “activity, negative = toxicity” value was inactive: 14.9%.
In the case of `Cc1c(Cl)cnc(NC(=O)COC(=O)CCc2nc3ccccc3s2)c1Cl`, the “activity, negative = toxicity” value is reported as inactive: 4.68%.
With `C/C(=N\NC(=O)c1sccc1-n1cccc1)c1cccs1` the “activity, negative = toxicity” value was inactive: 0.14%.
With `Cc1ccc(N(CC(=O)NCC2CCCO2)C(=O)CCC(=O)Nc2ccccn2)cc1C` (stereo not given) the “activity, negative = toxicity” value was inactive: 0.812%.
For `O=C(NCCN1CCOCC1)c1sc2ccccc2c1Cl`, the Potency was inconclusive [cytotoxic, single point].
With `CC(C)N(C(=O)CSc1nc2ccccc2n1-c1ccccc1)C(C)C` the Potency was inconclusive [cytotoxic, single point].
For `C=CCc1cccc(/C=N/NC(=O)c2ccc3nc[nH]c3c2)c1O`, the Potency was inconclusive [cytotoxic, partial curve].
For `C=C[C@@H]1c2ccccc2N(S(=O)(=O)c2ccc(C)cc2)[C@H](c2ccc(OC(C)=O)cc2)C1(C#N)C#N`, the Potency was inconclusive [cytotoxic, single point].
In the case of `CCOC(=O)C1(Cc2ccccc2C(F)(F)F)CCN(C2CCN(C(C)C)CC2)CC1`, the Potency is reported as active: 14.6 µM.
With `Cc1ccc(-c2nn(-c3ccccc3)cc2/C=N/NS(=O)(=O)c2ccccc2)cc1` the Potency was inconclusive [cytotoxic, single point].
In the case of `O=C(CSc1nc(O)c(Cc2ccccc2)c(=O)[nH]1)c1ccccc1`, the “activity, negative = toxicity” value is reported as inactive: -8.56%.
For `COc1ccc(NS(=O)(=O)c2cc(NC(=O)C3CC3)ccc2N2CCCCC2)cc1`, the Potency was inconclusive [cytotoxic, single point].
